Source: the supplement of paper PMC9151546
Many values rest on one well or one pass, so single values are uncertain.

Experiments:
CHO-K1 [1] = assay: relative survival (nuclei to bead ratio vs DMSO control) (% of vehicle control); higher = more surviving cells
CHO-K1 [2] = assay: micronucleus frequency (% of nucleated events); higher = more micronuclei (genotoxic)
CHO-K1 [3] = assay: hypodiploid nuclei frequency (% of nucleated events); higher = more hypodiploid events (aneugenic)
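Wherever hypodiploid nuclei frequency (% of nucleated events) is given: hypodiploid nuclei gated on a flow cytometer with 488 nm excitation after SYTOX Green staining, cultures at 37 °C, positive controls vinblastine without S9 and cyclophosphamide with S9.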
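Wherever micronucleus frequency (% of nucleated events) is given: cells lysed with nuclei stained by SYTOX Green, then micronucleus-gated events counted against nucleated events by flow cytometry with 488 nm excitation.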
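Wherever relative survival (nuclei to bead ratio vs DMSO control) is given: Lysed-cell nuclei stained with SYTOX Green and counted against counting beads by flow cytometry at 488 nm excitation, with vinblastine (no S9) and cyclophosphamide (plus S9) as positive controls.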

c1ccc2[nH]c(-c3cscn3)nc2c1 [Thiabendazole]
Conditions	hypodiploid nuclei frequency, CHO-K1 [3] [%]	micronucleus frequency, CHO-K1 [2] [%]	relative survival, CHO-K1 [1]
concentration: 4.5 (µM), S9 metabolic activation: with S9, exposure time: 3-4 hours	0.19	1.31	101
concentration: 4.5 (µM), S9 metabolic activation: without S9, exposure time: 24 hours	1.19	3.14	84.5
concentration: 5.63 (µM), S9 metabolic activation: with S9, exposure time: 3-4 hours	0.36	1.56	113
concentration: 5.63 (µM), S9 metabolic activation: without S9, exposure time: 24 hours	1.22	2.89	103
concentration: 7.04 (µM), S9 metabolic activation: with S9, exposure time: 3-4 hours	0.26	1.58	104
concentration: 7.04 (µM), S9 metabolic activation: without S9, exposure time: 24 hours	1.37	3.48	98.4
concentration: 8.8 (µM), S9 metabolic activation: with S9, exposure time: 3-4 hours	0.29	1.43	104
concentration: 8.8 (µM), S9 metabolic activation: without S9, exposure time: 24 hours	1.18	2.74	108
concentration: 11 (µM), S9 metabolic activation: with S9, exposure time: 3-4 hours	0.17	1.37	117
concentration: 11 (µM), S9 metabolic activation: without S9, exposure time: 24 hours	1.15	3.01	111
concentration: 13.7 (µM), S9 metabolic activation: with S9, exposure time: 3-4 hours	0.33	1.46	104
concentration: 13.7 (µM), S9 metabolic activation: without S9, exposure time: 24 hours	1.26	4.3	92.8
concentration: 17.2 (µM), S9 metabolic activation: with S9, exposure time: 3-4 hours	0.28	1.39	107
concentration: 17.2 (µM), S9 metabolic activation: without S9, exposure time: 24 hours	1.21	3.21	101
concentration: 21.5 (µM), S9 metabolic activation: with S9, exposure time: 3-4 hours	0.45	1.64	102
concentration: 21.5 (µM), S9 metabolic activation: without S9, exposure time: 24 hours	1.5	3.46	114
concentration: 26.8 (µM), S9 metabolic activation: with S9, exposure time: 3-4 hours	0.4	1.09	115
concentration: 26.8 (µM), S9 metabolic activation: without S9, exposure time: 24 hours	2.16	2.61	93.41
concentration: 33.6 (µM), S9 metabolic activation: with S9, exposure time: 3-4 hours	0.29	1.32	104
concentration: 33.6 (µM), S9 metabolic activation: without S9, exposure time: 24 hours	1.98	3.05	93.3
concentration: 41.9 (µM), S9 metabolic activation: with S9, exposure time: 3-4 hours	0.23	1.53	98.9
concentration: 41.9 (µM), S9 metabolic activation: without S9, exposure time: 24 hours	2.49	2.94	92.7
concentration: 52.4 (µM), S9 metabolic activation: with S9, exposure time: 3-4 hours	0.21	1.38	117
concentration: 52.4 (µM), S9 metabolic activation: without S9, exposure time: 24 hours	2.8	2.87	82.71
concentration: 65.5 (µM), S9 metabolic activation: with S9, exposure time: 3-4 hours	0.31	1.26	113
concentration: 65.5 (µM), S9 metabolic activation: without S9, exposure time: 24 hours	3.08	3.27	105
concentration: 81.9 (µM), S9 metabolic activation: with S9, exposure time: 3-4 hours	0.39	1.36	110
concentration: 81.9 (µM), S9 metabolic activation: without S9, exposure time: 24 hours	3.32	3.6	93.7
concentration: 102 (µM), S9 metabolic activation: with S9, exposure time: 3-4 hours	0.38	1.19	103
concentration: 102 (µM), S9 metabolic activation: without S9, exposure time: 24 hours	3.88	4.35	73.8
concentration: 128 (µM), S9 metabolic activation: with S9, exposure time: 3-4 hours	0.32	1.34	111
concentration: 128 (µM), S9 metabolic activation: without S9, exposure time: 24 hours	4.14	6.75	72.1
concentration: 160 (µM), S9 metabolic activation: with S9, exposure time: 3-4 hours	0.32	1.19	102
concentration: 160 (µM), S9 metabolic activation: without S9, exposure time: 24 hours	5.41	9.81	77.2
concentration: 200 (µM), S9 metabolic activation: with S9, exposure time: 3-4 hours	0.32	1.49	102
concentration: 200 (µM), S9 metabolic activation: without S9, exposure time: 24 hours	6.86	14	57.52
